The source of these data is publication PMC6212790.

Some of the results follow. At the low end of the ranking the order means little.

The assay deals with T1, GST-Rok (full length) (UniProt O34857).
T1 sequence: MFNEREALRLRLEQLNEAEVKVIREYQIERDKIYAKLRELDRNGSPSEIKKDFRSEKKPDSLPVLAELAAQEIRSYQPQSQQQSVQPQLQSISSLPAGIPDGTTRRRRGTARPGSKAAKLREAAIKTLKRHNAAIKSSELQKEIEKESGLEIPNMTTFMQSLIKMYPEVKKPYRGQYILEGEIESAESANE
Briefly: protein binding microarray.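 Note: rank score from −0.5 (least bound) to 0.5 (best bound).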 Particulars: Rok is a gene silencer of Bacillus subtilis; high values mean tight binding; most listed sequences are background and not binding sites; double strand, one strand shown.
AAACGTCA yielded a binding signal of 0.0127 E-score. Regarding AGATCACC, the binding signal stood at 0.158 E-score. The figure for CATGAACA is 0.047 E-score. The sequence AGGCCGCG came in with a binding signal of -0.215 E-score. The figure for ACTCATCA is 0.163 E-score. The figure for CGCTTCCA is -0.116 E-score. The figure for ATGGAAAA is 0.0297 E-score; for GGTCGCGA it is -0.153 E-score; for GGGTCGCA it is -0.212 E-score. For the sequence TGGTCAAA, the binding signal was -0.0114 E-score.

Regarding CGCGACAA, the binding signal was -0.163 E-score. ATAGAAGG had a binding signal of 0.00765 E-score.

TCCAGGCA gave a binding signal of -0.117 E-score. The figure for CACACACA is 0.0466 E-score; for GTCGATGA it is -0.0534 E-score. Sequence AAGCCCAT gave a binding signal of -0.152 E-score. The sequence CTTACCAC gave a binding signal of 0.00163 E-score.

AATGTTGT returned a binding signal of 0.154 E-score. The figure for TACGGATA is 0.0212 E-score; for ACCAGTCA it is -0.0676 E-score; for GCCCGAGA it is -0.252 E-score.

In the case of AACTAGTG, the binding signal was determined as 0.39 E-score. The figure for GAAGGGCC is -0.305 E-score; for GAAACCAA it is -0.0226 E-score; for ACTAAAAG it is 0.303 E-score.

Regarding CTTTCTCC, the binding signal was found to be 0.0988 E-score. For the sequence AAGCTAAC, the binding signal was -0.111 E-score. The figure for CAGTAGGC is -0.157 E-score. As to AGCATAAC, the binding signal worked out at 0.0217 E-score. With CCTCATCG, the binding signal is -0.0228 E-score. The figure for AAGCCTAC is -0.0131 E-score; for TAGCGAGA it is 0.123 E-score. In turn, AAGAAAGG displayed a binding signal of -0.0808 E-score. The figure for AATAGGAG is 0.0707 E-score; for AAACAGAA it is 0.0069 E-score. On to TCGCGGAA, for which the binding signal worked out at 0.0925 E-score. Regarding GCACTGTA, the binding signal was -0.03 E-score.

The sequence ATCTGGCA showed a binding signal of -0.173 E-score. As to GACGACTC, the binding signal was -0.233 E-score. The figure for ACGACCAC is -0.124 E-score; for GAGATTTA it is 0.0346 E-score; for TATCGCGA it is 0.115 E-score.

The sequence AAGACCAC registered a binding signal of -0.208 E-score.

Sequence CAGGCTTA returned a binding signal of -0.199 E-score.

As for TCCTATCA, the binding signal amounted to 0.123 E-score. The figure for AAGGACCG is -0.233 E-score; for CTACACTA it is 0.232 E-score; for CAATCGGA it is 0.132 E-score. In turn, CTAACTTA had a binding signal of 0.213 E-score. The figure for TATCAAAA is 0.158 E-score; for ACTGTGAA it is 0.0225 E-score; for AGTATCTC it is 0.238 E-score.

Sequence ACAATATC yielded a binding signal of 0.217 E-score.

Consider AGATCACT, for which the binding signal was -0.0981 E-score. The figure for GCCAACAC is -0.068 E-score; for ACTCACTG it is -0.00121 E-score; for AACGTTCC it is -0.161 E-score. With ACATAACA, the binding signal amounted to 0.238 E-score. The figure for CGATACTA is 0.328 E-score; for AACGAACG it is -0.0939 E-score. In turn, GCTTCTAC yielded a binding signal of 0.295 E-score. The figure for CTTCCAAC is -0.238 E-score; for AACTTGAG it is -0.00396 E-score; for AATAGCAA it is 0.229 E-score.

In turn, ACCTGTAC came in with a binding signal of 0.103 E-score.

ACGAAAAA gave a binding signal of -0.0171 E-score.

GGAGCGAA: the binding signal is -0.209 E-score. The figure for CAAACAAG is -0.113 E-score. The figure for AGGTCCCA is -0.142 E-score; for GTCGGAAA it is -0.231 E-score; for CACTCGCC it is -0.278 E-score. The figure for ATTGTTCC is -0.0436 E-score; for CTTGGTCA it is -0.139 E-score. The sequence GGTCCACC gave a binding signal of -0.365 E-score. The figure for CCGAGTCC is -0.265 E-score; for GAATGGTC it is 0.0086 E-score. The figure for AACATGCT is 0.000188 E-score; for ACTGTGGA it is -0.123 E-score; for AATCCAAA it is 0.0354 E-score. In the case of CCTTAGAC, the binding signal is -0.0943 E-score. The figure for CACTGCAA is -0.0826 E-score; for ACGCGAGT it is -0.121 E-score.

ACCCTAGG had a binding signal of -0.193 E-score. For the sequence CGCGCGCC, the binding signal was -0.242 E-score. The figure for AACTGCTT is 0.0154 E-score. Sequence ATCAACAG returned a binding signal of 0.197 E-score. The figure for GCGCGTCA is -0.282 E-score; for AGCACACA it is -0.176 E-score; for ACGCTGAA it is 0.0233 E-score. Sequence CTAGTATC registered a binding signal of 0.241 E-score. The figure for ATAGATTA is 0.301 E-score; for CCAAAAAC it is 0.0933 E-score. The figure for TATGTAGA is 0.292 E-score; for TAGTAACA it is 0.366 E-score. The figure for AAAAAACG is 0.13 E-score. In turn, CAACAACG yielded a binding signal of 0.0142 E-score. The figure for AAGAAGCG is -0.137 E-score; for GACTTAGC it is 0.00602 E-score. The figure for ATATTCCA is 0.261 E-score; for CAACTGGC it is -0.228 E-score; for AATAACCC it is -0.0129 E-score.

In the case of CGTTAGCA, the binding signal is -0.119 E-score. ATGGCATG had a binding signal of -0.0934 E-score.

Turning to AGTGCACT, the binding signal came to 0.155 E-score.

As to CAAGCCTG, the binding signal was -0.125 E-score. In turn, AACGCGAT came in with a binding signal of -0.00113 E-score. The figure for GGGGAACA is -0.118 E-score; for CTCCGCCC it is -0.38 E-score. The figure for CGTTGAAG is 0.0718 E-score; for CACGAACA it is -0.0305 E-score; for ATCACAGG it is -0.105 E-score. The figure for GCTCCCGA is -0.299 E-score; for ACCGAAAG it is -0.236 E-score. GACGTGCC had a binding signal of -0.201 E-score. For GGCGAGAC, the binding signal was -0.285 E-score. The figure for CCACACCA is 0.0354 E-score; for ACAGGATC it is 0.0392 E-score; for ATTGATGC it is -0.0878 E-score. The figure for AATGATTC is 0.111 E-score; for CGGTCAAA it is -0.104 E-score. The sequence CTTTAACA yielded a binding signal of -0.0713 E-score.

The sequence AGGGTGGG displayed a binding signal of -0.115 E-score. The figure for AGACTTAG is -0.0479 E-score; for ACTTCAAA it is 0.0898 E-score. The figure for CACTTTCA is 0.01 E-score. Regarding CTCATGTA, the binding signal was 0.275 E-score. The figure for GCGTGAGC is -0.289 E-score. TAAAGAAA had a binding signal of -0.058 E-score. The figure for AACGAGGT is -0.102 E-score. The figure for AGCACCCT is -0.103 E-score; for CGCGCGCG it is 0.183 E-score. CGCCGAAC gave a binding signal of -0.0302 E-score. In turn, ATCATCCG came in with a binding signal of 0.0145 E-score. The figure for AGATTTTA is 0.294 E-score; for GGAGGCAC it is -0.254 E-score; for CAATTCCC it is 0.0664 E-score. The sequence GAACACGA yielded a binding signal of -0.0187 E-score. The figure for CGAAACTA is 0.446 E-score; for CAAGTATA it is 0.204 E-score. On to CTGTGTAC, for which the binding signal was determined as 0.165 E-score. For the sequence CCATGCAC, the binding signal was -0.225 E-score.

As to TGCACCAA, the binding signal is -0.0683 E-score. The figure for AACAGTTA is 0.238 E-score. The figure for GCCGTAAC is 0.044 E-score; for CCAGCCGC it is -0.399 E-score. Turning to ATGACTAC, the binding signal was found to be 0.0883 E-score. The figure for ATGCTTCG is -0.00471 E-score; for ATCTTCAC it is 0.146 E-score.

Regarding AGCAGCAG, the binding signal was -0.124 E-score. Sequence ACTAGTAA registered a binding signal of 0.382 E-score.

Consider ACAGTAAA, for which the binding signal came out at 0.24 E-score. The figure for AGGCTACC is -9.3e-05 E-score; for ATGACACC it is 0.0339 E-score. For the sequence ACGGTATC, the binding signal was determined as 0.0533 E-score.

In the case of ATGGTACG, the binding signal was determined as 0.183 E-score. For the sequence GAGGAAAC, the binding signal was -0.178 E-score.

AGATCGAG had a binding signal of 0.0416 E-score. The figure for AACATGAG is 0.0158 E-score; for CAACGGTG it is -0.212 E-score. With ACTCGGAC, the binding signal is -0.182 E-score. The figure for CCTGCGCG is -0.105 E-score; for GGTCGTGA it is -0.125 E-score. As to ACCGTTAT, the binding signal came to 0.21 E-score. Take CGGAATTC: the binding signal amounted to 0.052 E-score. For the sequence AGAGGTGC, the binding signal is -0.0479 E-score. The figure for AGACTTAC is 0.0503 E-score. The figure for AAGCGCAA is -0.0404 E-score; for AAAGGTTA it is -0.0833 E-score; for AGTGCCCC it is -0.307 E-score.

Turning to CTGGCTTA, the binding signal was -0.0246 E-score. For the sequence TGAGCCAA, the binding signal was -0.197 E-score. The sequence AGGCCCCG gave a binding signal of -0.384 E-score.
